Reference: PubChem BioAssay AID602233 (National Center for Advancing Translational Sciences (NCATS), 2012)
In all, about 380,000 compounds went through this assay and about 170 (0.045%) were called active. The shares of active, inactive and inconclusive entries below differ from those in the screen. Calls follow the shape of the dose curve; as a rule, active = well fitted inhibition curve with a large enough effect; inconclusive = small, poorly fitted or top-dose-only effect; inactive = no such curve, though single readings can be large or run the other way. A potency beside an inconclusive call is a rough fit, not a confirmed value.

Each molecule was assayed against Phosphoglycerate kinase, glycosomal (Trypanosoma brucei brucei) (UniProt P07378) (assay: qHTS Assay to Find Inhibitors of Phosphoglycerate Kinase). Details: PGK/GAPDH coupled, Kinase-Glo luminescence, 60 min; series mostly up to 57.5 µM.
Outline: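 Recombinant glycosomal PGK reaction used 1,3-bisphosphoglycerate generated in-well by GAPDH (100nM final) in 100mM TEA pH 7.6, 5mM MgCl2, 0.01% Tween-20. After 60 minutes at room temperature, ATP was read by Kinase-Glo Plus luminescence end-point.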
Also: nearly all actives have a fitted effect of over 60% in size.
Potency is read from the fitted curve at half-maximal effect; tags tell the direction and shape of the fitted curve.

Potency, inactive:
Cc1ccc(C(=O)COC(=O)c2ccc(Cl)c(N)c2)s1
Cc1ccc(Oc2ccc(OCC(=O)NC3CCS(=O)(=O)C3)cc2)cc1 (stereo not drawn)
CCc1c(C)nc(SCc2nc(-c3ccccc3)no2)[nH]c1=O
CSc1ccccc1NC(=O)c1ccc(N2CC3CC(C2)c2cccc(=O)n2C3)c(NC(=O)c2ccncc2)c1 (stereo not drawn)
COc1ccc(CC2(CO)CCN(S(=O)(=O)c3c(C)nn(C)c3Cl)CC2)cc1
COc1cccc(NC(=O)CSc2nccn2C2CCCC2)c1
CC(C)C(OC(=O)c1cccs1)C(=O)NCc1ccco1 (stereo not drawn)
CN(C)CCNc1oc(-c2cccc(Cl)c2)nc1C#N
Cc1ccc(/C=C/c2nc3sc(C(=O)O)c(C)c3c(=O)[nH]2)cc1[N+](=O)[O-]
O=C(O)CN1C(=O)/C(=C\c2cc(Br)ccc2OCc2ccc(F)cc2)SC1=S
CCOC(=O)c1sc2nc(CC(=O)OC)nc(NCCN3CCOCC3)c2c1C
CNC(=S)N/N=C/c1ccc(-c2cccc(C(=O)O)c2)o1
Cc1cc2nc(-c3cccnc3SCC(=O)NCc3ccco3)[nH]c2cc1C

Potency, inconclusive:
NC(=O)c1cccc2c(=O)oc3ccccc3c12 25.1 µM [inhibitor, partial curve, poor fit]
COc1cccc(C(=O)Nc2cccc(OCC(=O)O)c2)c1 35.5 µM [inhibitor, partial curve, poor fit]
C/C(=N/NC(=O)c1cc2ccccc2cc1O)C1C(=O)c2ccccc2C1=O 28.2 µM [inhibitor, partial curve, poor fit]
O=C(c1ccccc1)c1c(O)cc(-c2ccccc2)oc1=O 31.6 µM [inhibitor, single point]
O=C(CCS(=O)(=O)c1ccc(Br)cc1)NCCC1=CCCCC1 28.2 µM [inhibitor, single point]
N=C1C=CC(=C(c2ccc(N)cc2)c2ccc(N)cc2)C=C1 15.8 µM [inhibitor, partial curve, poor fit]
O=C(OC1CCOC1=O)c1ccc(-c2nc3ccccc3s2)s1 (stereo not drawn) 22.4 µM [inhibitor, partial curve, poor fit]
COc1ccc(CCNC(=O)NCCc2c[nH]c3ccccc23)cc1OC 39.8 µM [inhibitor, single point]
O=C(N/N=C/c1ccccc1)c1[nH]ncc1Br 25.1 µM [inhibitor, partial curve]
NC(=O)C1CCCN(C(=S)Nc2cccc3ccccc23)C1 (stereo not drawn) 10 µM [inhibitor, partial curve, poor fit]
Cc1ccsc1/C=C1\CCc2ccccc2C1=O 22.4 µM [inhibitor, partial curve, poor fit]
Cc1ccc(C2=NC(=O)/C(=C/c3cc(O)c(O)c(Br)c3)S2)cc1 12.6 µM [inhibitor, partial curve, poor fit]
O=C1NC(=S)S/C1=C\c1ccc(SCc2ccccc2)o1 25.1 µM [inhibitor, single point]
COc1ccc(N=C2SC(C(N)=O)CC(=O)N2Cc2ccc3c(c2)OCO3)cc1 (stereo not drawn) 14.1 µM [inhibitor, partial curve, poor fit]
COCc1c(N)c(C)nc(Cl)c1C#N 10 µM [inhibitor, partial curve, poor fit]
O=C(Nc1ccccc1)C(=O)Nc1ccccn1 12.6 µM [inhibitor, partial curve, poor fit]
COc1cc(/C=C(\C#N)c2nc3ccccc3s2)cc([N+](=O)[O-])c1O 28.2 µM [inhibitor, partial curve, poor fit]
O=c1cc2nc(-c3ccccc3)nc(SCCOc3ccc(Cl)cc3)n2[nH]1 11.2 µM [inhibitor, partial curve]
CO[C@@]1(NC(=O)CSCC#N)C(=O)N2C(C(=O)O)=C(CSc3nnnn3C)CS[C@@H]21 11.2 µM [inhibitor, partial curve]
COc1cc(-c2nnc(SCc3cc(=O)oc4cc(O)c(O)cc34)o2)cc(OC)c1OC 15.8 µM [inhibitor, partial curve, poor fit]
COc1ccc(CNC(=O)C(OC(=O)c2ccco2)c2ccc(OC)cc2)cc1 (stereo not drawn) 31.6 µM [inhibitor, single point]
Cc1ccc(NC(=O)CN2C(=O)N/C(=C/c3cc(C)n(-c4cccc(C(=O)O)c4)c3C)C2=O)cc1 35.5 µM [inhibitor, single point]
O=C(Nc1nc2ccccc2s1)c1cnccn1 17.8 µM [inhibitor, partial curve, poor fit]
O=C(O)c1cccc(-n2cccc2/C=C2/NC(=O)N(c3cccc(Cl)c3)C2=O)c1 28.2 µM [inhibitor, single point]
O=c1cc(CN2CCc3ccccc32)nc2sccn12 39.8 µM [inhibitor, single point]
c1c2c(cc3sc(N4CCOCC4)nc13)OCO2 5.62 µM [inhibitor, partial curve, poor fit]
O=C(Nc1cnc(N2CCN(c3ccccc3)CC2)c(C(=O)O)c1)c1cccs1 22.4 µM [inhibitor, partial curve, poor fit]
CCOc1nc(Nc2ccc(OC)cc2)nc(OCC)n1 25.1 µM [inhibitor, partial curve]
O=C(NCc1cccc(CNC(=O)C(=O)NCc2ccco2)c1)C(=O)NCc1ccco1 17.8 µM [inhibitor, partial curve, poor fit]
O=C(ONc1ccc(N=NC(=O)c2ccccc2O)cc1)c1ccccc1 3.98 µM [inhibitor, full curve, poor fit]
